Assay results from PubChem BioAssay (NCI).
Values joined by “and” are separate entries in the source; they are usually repeats but may differ in a detail not shown here. Identical values can stand only once.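 Results reflect a 48-hour exposure of cells in 96-well plates to compound at five concentrations. Abbreviation: GI50, concentration required for 50% inhibition of growth. TGI marks complete inhibition of growth.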

test system: NCI-H322M lung; assay: NCI tumour cell line growth inhibition, 48 h

| SMILES | TGI | GI50 |
| --- | --- | --- |
| CC(=O)OCCCCn1cnc2nc(Nc3ccccc3)nc(Cl)c21 | > 100 µM | – |
| CC1(C)C(O)C[C@]23CCC[C@](C)(C[C@@H](O)C12)C3 (stereo partly drawn) | > 100 µM | – |
| O=C(O)C1(C(=O)O)CC1(C(=O)O)C(=O)O | > 100 µM | – |
| COc1ccc(-c2cnc3ccnn3c2-c2cc(OC)c(OC)c(OC)c2)cc1 | > 100 µM | 6.23 µM |
| C=CC1ON(C)CCc2cc(OC)c(OC)cc21 (stereo not drawn) | > 100 µM | – |
| C#CCOCn1cnc2c(=S)nc[nH]c21 | > 100 µM | – |
| CCCCCC(O)[C@H]1C(=O)C[C@@H](O[Si](C)(C)C(C)(C)C)[C@@H]1/C=C/CCOCc1ccccc1 (stereo partly drawn) | 46.1 µM | – |
| COC(=O)C1=CN=C(C(=O)OC)NN1 | > 100 µM | – |
| COc1cccc2c(NNc3ccccc3)c3ccc([N+](=O)[O-])cc3nc12 | > 100 µM | – |
| Cc1c2c(nn1C(=O)c1nn(-c3ccc(Cl)cc3)cc1O)-c1ccccc1CC2 | > 100 µM | 0.053 µM |
| Oc1ccc(CNCc2ccccc2)c2cccnc12 | 97.7 µM | – |
| CCC(C)OC(=O)C1C2CCC(O2)C1C(=O)O (stereo not drawn) | > 100 µM | – |
| COc1ccc(-c2c(C#N)c(-c3ccc(C)cc3)n(NS(=O)(=O)c3ccccc3)c(=O)c2C#N)cc1 | > 100 µM | – |
| COC(=O)C(C(=O)C(=O)NC1=C(Cl)C(=O)c2ccccc2C1=O)c1csc(-n2nc(-c3ccccc3)cc2-c2ccccc2)n1 (stereo not drawn) | > 100 µM | – |
| CCOC(=O)C(NC(=O)c1ccccc1)(Nc1ccc(S(=O)(=O)Nc2nc(C)cc(C)n2)cc1)C(F)(F)F (stereo not drawn) | > 100 µM | – |
| CCOC(=O)C(Cc1c2ccccc2cc2ccccc12)(NC(C)=O)C(=O)OCC | > 100 µM | – |
| CN[C@]12CC3(C=CC(=O)C=C3)O[C@@]1(Cc1ccc(OC)cc1)N(C)C(=O)N2 | 16.8 µM | 4.22 µM |
| CC(=O)OCc1cc(OC(C)=O)cnc1COC(C)=O | > 100 µM | – |
| CCOC(=O)C1CCn2c(nc3c2c(=O)n(C)c(=O)n3C)S1 (stereo not drawn) | > 100 µM | – |
| O=C1/C(=C\C(Cl)=C/c2ccc([N+](=O)[O-])cc2)SC(=S)N1CCc1ccc(O)cc1 | 3.03 µM | 1.43 µM |
| COC(=O)C(=O)C(C(=O)C(=O)Nc1ccc(Cl)cc1C)c1nc2ccc(C(=O)c3ccccc3)cc2[nH]c1=O (stereo not drawn) | > 100 µM | – |
| CCOc1ccccc1N=Nc1c(-c2ccccc2)nn(C(=O)CC(=O)Nc2cccc(Cl)c2)c1-c1ccccc1 | > 100 µM | – |
| COc1cc(/C=C/C(=O)c2ccc(Nc3ncnc4ccccc34)cc2)cc(OC)c1 | > 100 µM | 45.3 µM |
| O=c1cc(-c2ccc(Cl)cc2)[nH]c2ncccc12 | > 100 µM | – |

| SMILES | TGI | GI50 |
| --- | --- | --- |
| Cn1c(=O)[nH]c2[nH]c3ccccc3c2c1=O | > 100 µM | – |
| COc1ccc(N=C2C(=O)C3=C(OC(C)(C)CC3)c3ccccc32)cc1 | 6.48 µM | – |
| CC1(C)CC(=O)C2=C(C1)NC(SSC1=C(C#N)C(c3ccc(F)cc3)C3=C(CC(C)(C)CC3=O)N1)=C(C#N)C2c1ccc(F)cc1 (stereo not drawn) | > 150 µg/mL | 48.8 µg/mL |
| CCOC(=O)c1c(C)nc2ccc(Cl)cc2c1-c1ccccc1 | 91.6 µM | 25.2 µM |
| C/C=C/C=N/N(C(=O)c1cc([N+](=O)[O-])cc([N+](=O)[O-])c1)C1=NC(c2ccccc2)C(c2ccccc2)=NN1 (stereo not drawn) | > 100 µM | – |
| O=S1(=O)OC(c2ccc(O)cc2)(c2ccc(O)cc2)c2ccccc21 | > 100 µM | – |
| CN(c1ccccc1)S(=O)(=O)c1ccccc1[N+](=O)[O-] | > 100 µM | – |
| Nc1cc2c3c(cccc3c1)C(=O)N(c1ccc(OCCN3CCCCC3)cc1)C2=O | 41.2 µM | – |
| C[C@]12CCC(=O)C=C1CC[C@@H]1[C@@H]2CC[C@]2(C)C(=O)[C@H](n3ccnc3)C[C@@H]12 | > 100 µM | – |
| O=c1c2cc([N+](=O)[O-])ccc2n(Cc2ccccc2)n1Cc1ccccc1 | > 31.6 µM | – |
| CC1=C2C(=O)OCC23C=COC3(C)O1 (stereo not drawn) | > 100 µM | – |
| O=C1CCCC2=C(N1)C(=O)C=CC2=O | > 84.3 µM | – |
| Cc1ccc(OCC2OC(C#N)C(Oc3ccc(C)cc3)C2Oc2ccc(C)cc2)cc1 (stereo not drawn) | > 100 µM | – |
| Cc1cn(C2CC(O)C(Cn3cc(Cn4ncc(=O)[nH]c4=O)nn3)O2)c(=O)[nH]c1=O (stereo not drawn) | > 100 µM | – |
| CCc1ccc(Nc2cc(=O)[nH]c(SCc3ccccc3)n2)cc1 | > 100 µM | – |
| CC1(C)OC(C(N)=O)=C(C(N)=O)O1 | > 100 µM | – |
| OCCOCn1cc(Cn2ncc3c(SCc4ccccc4)ncnc32)nn1 | > 100 µM | – |
| CCOC(=O)c1sc2nc(SC)nc3c2c1N=CN3c1ccccc1Cl | > 100 µM | – |
| CC(=O)O[C@H]1C(=O)O[C@@H]2C[C@H]3C(C)=CC(=O)[C@@H](O)[C@]3(C)[C@H]3[C@@]4(O)OC[C@]32[C@@H]1[C@@H](C)[C@H]4O | 6.08 µM and 1.36 µM | 0.649 µM and 0.248 µM |
| O=C(c1cccc(OCc2ccccc2)c1OCc1ccccc1)N1CCSC1=S | > 90.4 µM | – |
| CCOC(=O)/C(=C/c1ccc([N+](=O)[O-])cc1)C(=O)c1ccccc1 | 6.61 µM | 2.36 µM |
| CCOC(=O)c1c(-c2ccccc2)[n+](=O)c2ccc(Cl)cc2n1[O-] | 27.1 µM | 7.52 µM |
| COc1c2c(cc3c1C(O)N1CC[C@]34[C@H]3O[C@H]3[C@H](OC)C[C@@H]14)OCO2 (stereo partly drawn) | > 100 µM | – |
| Cc1ccccc1NC(=O)C(=O)C(c1cnc2ccc([N+](=O)[O-])cc2n1)[N+](=O)[O-] (stereo not drawn) | > 100 µM | – |
